Measured values from the supplement of paper PMC3334620.
The full ranking holds about 33,000 sequences; the median of “E-score (-0.5 to 0.5)” is about -0.054, and the highest 2% start at about 0.35. The list shows a part of the results.

molecular target: T1, Stb5 (UniProt P38699); assay: PBM E-score (8-mer binding enrichment) (E-score (-0.5 to 0.5)); higher = stronger / more preferred TF binding; most listed sequences are background and not binding sites; conditions: protein concentration: 200 nM; construct: GST-full length
T1 sequence: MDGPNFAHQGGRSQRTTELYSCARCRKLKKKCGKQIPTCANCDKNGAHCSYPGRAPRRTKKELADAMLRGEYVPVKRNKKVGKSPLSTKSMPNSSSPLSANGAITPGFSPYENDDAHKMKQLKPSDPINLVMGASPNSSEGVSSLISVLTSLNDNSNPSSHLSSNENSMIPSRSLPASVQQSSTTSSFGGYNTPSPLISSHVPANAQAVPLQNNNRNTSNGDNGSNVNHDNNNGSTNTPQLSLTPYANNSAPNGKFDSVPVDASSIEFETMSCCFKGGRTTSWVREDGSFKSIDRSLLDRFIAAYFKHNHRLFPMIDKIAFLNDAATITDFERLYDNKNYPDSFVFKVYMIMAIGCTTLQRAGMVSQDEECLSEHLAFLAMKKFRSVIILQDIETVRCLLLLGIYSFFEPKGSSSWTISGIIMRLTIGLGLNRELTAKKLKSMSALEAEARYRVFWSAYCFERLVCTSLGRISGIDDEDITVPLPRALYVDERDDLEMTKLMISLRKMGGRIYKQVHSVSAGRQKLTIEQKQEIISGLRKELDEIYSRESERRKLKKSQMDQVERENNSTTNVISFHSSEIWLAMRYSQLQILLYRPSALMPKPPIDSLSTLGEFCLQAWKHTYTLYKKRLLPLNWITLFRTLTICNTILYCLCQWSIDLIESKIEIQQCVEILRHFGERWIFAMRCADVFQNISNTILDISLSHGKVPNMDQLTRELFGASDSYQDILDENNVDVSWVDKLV
Experimental: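 Universal 'all 10-mer' protein binding microarrays (Agilent AMADID 015681) probed with GST-tagged S. cerevisiae TFs (full-length or DBD) made by in vitro transcription/translation (PURExpress), about 100-200 nM. Bound TF was detected with fluorescent anti-GST. Each ungapped 8-mer (which stands for itself and its reverse complement) is scored by the PBM enrichment score (E-score), a modified Wilcoxon-Mann-Whitney statistic from -0.5 to +0.5, computed with the Universal PBM Analysis Suite. Scale: above 0.35 generally sequence-specific binding.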

Sequence	PBM E-score
GACATTCC	-0.0941
AGGCGCTA	0.0525
CTTGCACC	0.118
ACGCACAG	-0.115
CACTCATG	-0.146
CCGCCCAC	0.264
CGGTCTGA	0.229
AATATCGG	0.258
GTTGCCAA	-0.23
AATCGCAG	-0.183
ACTATTAA	-0.227
AGAAATGC	0.116
ATTCTGGA	-0.223
CGAGGAAC	0.176
ATTAGTCA	-0.0683
AAGCAGCA	-0.0749
GGCCATTA	0.148
ACGCGATA	-0.138
CAGTTGGC	-0.211
CACATACG	-0.0167
CGTGTACC	-0.0872
ATGTCCTG	-0.0717
AAAATCAT	-0.106
AATGGAGT	-0.259
ACCTAGCT	-0.207

Sequence	PBM E-score
AGGTCTTC	-0.235
GATCTTTA	-0.0381
ATTGGATG	-0.203
GACCACCA	-0.126
AATTTCTA	-0.162
GTGCCCCA	-0.159
AAACCCGG	0.395
TCAGACAA	-0.0568
GGGCGATA	0.11
CAGATAAA	-0.0468
AGGTTACT	0.0339
GTCAGAAC	0.0598
CAATATCA	0.0378
CAGCGGAA	0.164
GGAGTTAC	0.365
CCGACCCG	0.341
GACGATTA	0.0317
CACCCCGG	0.277
GAAGACGC	-0.0115
AATCACAC	0.0783
GCTAAATA	0.019
CTATCTTA	-0.0282
CAAATGTA	0.136
CCGGGTGC	0.177
CTCAACAG	-0.144

Sequence	PBM E-score
ATCACAGC	-0.0307
AATGGGCC	-0.0367
ACCGGTCG	0.332
CTGTCATA	-0.184
CGAGAAGC	0.0462
CCCATCAC	-0.02
CCCTGATC	-0.00425
ACAGAACA	0.081
ACTCCGCA	0.259
CCTGCTAC	-0.0327
TAGGCGCA	-0.186
CCATGGCA	-0.0516
CACAATCG	0.0773
ACCCGGGA	0.208
GCGGAGTA	0.33
GAAACAGC	0.0928
CCGCTAAC	0.278
CCCGTCTA	0.151
CGATTAAC	0.232
CATTACCG	0.205
GAGGGGAC	-0.137
ACAGACCG	0.23
ACACATCA	-0.0998
ACTGTCTC	-0.267
TCTGGACA	-0.135

Sequence	PBM E-score
ATTGTGCG	-0.0334
ACAGAGCG	-0.0791
ACTTAAGT	0.128
AGGATTCG	-0.0678
AGCTTCGA	-0.217
CATGAGTA	-0.00299
GAGTTTGC	0.0867
CACTTAAG	0.166
ACGGCCCT	0.264
ATGGTGCG	-0.0498
CTAAGCTC	-0.15
GCCCATGA	-0.0767
GCACGCCC	-0.218
AATCATGT	-0.176
GGTCCTCA	0.0195
ACATAACA	0.176
AGGTGACA	-0.0515
AATGGCAG	-0.0882
AGTCACCA	0.122
ATGCCTTA	-0.338
ATATTTGA	-0.0169
ATTACTGC	0.0035
AGCTCCCA	-0.201
GTAGAGAA	-0.162
CCAACTAA	-0.00745

Sequence	PBM E-score
AACATCTA	-0.209
CCAGAATA	0.0023
AAAAACTC	-0.0908
ACCGTGCA	0.174
CCACTTCA	-0.0394
CACGGTCC	0.135
CAGATTCA	-0.267
ACCCTTCC	-0.0754
GATTCTGC	0.0324
GTGGTAAA	0.0327
ACTTCGGC	0.169
GCGATCGA	-0.119
ATCAAACG	0.0736
ATCCCGAT	0.238
GCTAATTA	0.048
ATTGAAAA	0.103
CTTTCATC	-0.149
TCATACGA	-0.104
CGCGGCCC	0.227
GAGCTGAC	-0.0158
CTTTAGCA	0.133
CGGAAGAC	0.118
AAGTTGGA	-0.127
ACATGTGG	-0.0719
GCCTTAAA	0.12

Sequence	PBM E-score
ACGCCCAT	0.101
CACTATTA	0.0326
CATCAGAC	0.0922
CGTTAGGA	0.102
CGGTTTAA	0.155
CCATGAGG	-0.0613
GCAGAAAA	-0.00391
CGATATTA	0.00284
ACCCATGG	-0.204
GTTGTATA	0.0296
AAGTAGCT	-0.281
AAGAGGCA	-0.337
AATGATCC	-0.0728
AGAACAAG	-0.239
CCAAGCAA	-0.148
CTGTTTCC	0.0582
AGTTAGAG	0.0437
CACGTGCC	-0.129
GTTAGTGA	-0.0185
AGAATTGA	-0.0265
AAAGTCGG	0.332
ACGTGTGC	-0.352
AGCAGTGG	-0.117
AGGTCTGA	-0.227
TTATCCAA	0.0137

Sequence	PBM E-score
GACGGAAC	0.121
AACGCCGA	0.456
CTGCGACC	-0.0552
CTAGCTTA	-0.0794
GGACAATA	0.136
ATAGCGGA	0.345
AGCGGAAC	0.295
GACAGCGC	0.245
CCTTGCCG	0.0193
AGAAAAAT	-0.161
ACTCGAGG	-0.218
CCCAACAC	-0.0453
CACTATGA	-0.219
ACTATAAT	0.0519
AGGAAATC	-0.00224
CCACAAAA	-0.119
ACGTTGCG	0.0488
GCCATAGC	0.0758
CCTGTAAC	-0.126
AAATCATC	-0.268
AAAAATGT	0.037
AGACTCTG	-0.341
